The text below walks through data of PMC11995724, “Antibiotic target discovery by integrated phenotypic and activity-based profiling of electrophilic fragments” (Cell chemical biology, 2025).

The structures appear in SMILES notation. Among all 3,200 compounds or so, about 75 (2%) showed an effect of 50% or more. Some of the results follow.

The experiment concerns T1, S. aureus MSSA476.
T1 construct: MSSA476
Also on record: species or system S. aureus MSSA476 (TSB) or V. cholerae SAD30 (LB); 384-well bacterial growth screen at 25 uM, OD600 relative to DMSO control. The following applies: relative growth, OD600, TSB; 25 µM; inhibitor.
Regarding `COc1ccc(C=C(C#N)C(=O)Nc2nccs2)cc1O` [8-G19, 2-cyano-3-(3-hydroxy-4-methoxyphenyl)-N-(1,3-thiazol-2-yl)prop-2-enamide], the “% of control remaining” value was 82.3237%.

For `C=CC(=O)NCC1(C)CCS(=O)(=O)CC1` [1-G16, N-[(4-methyl-1,1-dioxo-1lambda6-thian-4-yl)methyl]prop-2-enamide], the “% of control remaining” value is listed as 99.5165%. The result for `O=C(CCl)Nc1nc(-c2cc(F)ccc2F)cs1` [4-L22, 2-chloro-N-[4-(2,5-difluorophenyl)-1,3-thiazol-2-yl]acetamide] reads 123.869%. The result for `C=CC(=O)NCC1CCCC1N1CCCS1(=O)=O` (stereo not drawn) [3-L13, N-{[2-(1,1-dioxo-1lambda6,2-thiazolidin-2-yl)cyclopentyl]methyl}prop-2-enamide] reads 114.933%; that for `C=CC(=O)NC(C)c1cc2cnccc2o1` (stereo not drawn) [1-B08, N-(1-{furo[3,2-c]pyridin-2-yl}ethyl)prop-2-enamide], 107.604%. For `CC(NC(=O)CCl)c1cn(C)c2cc(Cl)ccc12` (stereo not drawn) [5-E11, 2-chloro-N-[1-(6-chloro-1-methyl-1H-indol-3-yl)ethyl]acetamide] the value was 99.4536%; for `C=CC(=O)Nc1ccc2nc(O)n(C3CC3)c2c1` [2-K16, N-(1-cyclopropyl-2-hydroxy-1H-1,3-benzodiazol-6-yl)prop-2-enamide], 114.534%. `CC(Cl)C(=O)N(C)C1CCS(=O)(=O)CC1` (stereo not drawn) [6-J21, 2-chloro-N-(1,1-dioxo-1lambda6-thian-4-yl)-N-methylpropanamide]: the “% of control remaining” value is given as 102.098%. For `C=CC(=O)N1CCn2c(nnc2C(F)(F)F)C1` [1-D18, 1-[3-(trifluoromethyl)-5H,6H,7H,8H-[1,2,4]triazolo[4,3-a]pyrazin-7-yl]prop-2-en-1-one] the value was 102.33%.

For the compound `CNC(=O)C(C#N)=Cc1cccc(C)c1C` [9-D14, 2-cyano-3-(2,3-dimethylphenyl)-N-methylprop-2-enamide], the “% of control remaining” value is on record as 91.0861%.

On to `C=CC(=O)NCc1ccc(OC)cc1` [1-K10, N-[(4-methoxyphenyl)methyl]prop-2-enamide], for which the “% of control remaining” value is 113.934%.

Regarding `CC(Cl)C(=O)N1CCC(C(=O)c2cccs2)CC1` (stereo not drawn) [7-L13, 2-chloro-1-[4-(thiophene-2-carbonyl)piperidin-1-yl]propan-1-one], the “% of control remaining” value was found to be 103.925%. The result for `N#CC(=Cc1c[nH]nc1-c1ccccc1F)C(=O)Nc1ccccc1F` [8-H06, 2-cyano-N-(2-fluorophenyl)-3-[3-(2-fluorophenyl)-1H-pyrazol-4-yl]prop-2-enamide] reads 91.9502%; that for `CC(Cl)C(=O)NCCc1cnc2c(Cl)cnn2c1` (stereo not drawn) [7-M18, 2-chloro-N-(2-{3-chloropyrazolo[1,5-a]pyrimidin-6-yl}ethyl)propanamide], 105.495%; that for `O=C(CCl)NC(c1ccccc1)c1ccccc1` [6-M12, 2-chloro-N-(diphenylmethyl)acetamide], 103.463%.

For the compound `C=CC(=O)N1Cc2c(C(=O)O)cnn2CC1C` (stereo not drawn) [3-N18, 6-methyl-5-(prop-2-enoyl)-4H,5H,6H,7H-pyrazolo[1,5-a]pyrazine-3-carboxylic acid], the “% of control remaining” value is given as 98.9116%. The result for `C=CC(=O)NC(C)(C)c1ccc(S(N)(=O)=O)cc1F` [2-P17, N-[2-(2-fluoro-4-sulfamoylphenyl)propan-2-yl]prop-2-enamide] reads 90.5135%; that for `CCCn1c(C)cc(C=C(C#N)C(=O)Nc2cccc(F)c2)c1C` [8-L19, 2-cyano-3-(2,5-dimethyl-1-propyl-1H-pyrrol-3-yl)-N-(3-fluorophenyl)prop-2-enamide], 95.6017%; that for `CN1c2ccccc2C(NC(=O)CCl)CS1(=O)=O` (stereo not drawn) [7-L04, 2-chloro-N-(1-methyl-2,2-dioxo-3,4-dihydro-1H-2lambda6,1-benzothiazin-4-yl)acetamide], 102.983%.

Regarding `N#CC(=Cc1cccc(Cl)c1Cl)C(=O)NCc1ccccc1` [8-L04, N-benzyl-2-cyano-3-(2,3-dichlorophenyl)prop-2-enamide], the “% of control remaining” value is on record as -0.332%. For `Cc1cc(C(=O)C(C)Cl)c(C)n1-c1ccc(OC(F)F)cc1` (stereo not drawn) [10-E10, 2-chloro-1-{1-[4-(difluoromethoxy)phenyl]-2,5-dimethyl-1H-pyrrol-3-yl}propan-1-one] the value was 125.938%. For `Cl.O=C(CCl)NC1CCN(Cc2ccccc2)CC1` [5-E19, N-(1-benzylpiperidin-4-yl)-2-chloroacetamide hydrochloride] the value was 109.654%; for `CC(Cl)C(=O)NCc1cccc(N2C(=O)NC3(CCCC3)C2=O)c1` (stereo not drawn) [7-O18, 2-chloro-N-[(3-{2,4-dioxo-1,3-diazaspiro[4.4]nonan-3-yl}phenyl)methyl]propanamide], 103.611%.

For `CC(=O)Nc1ccc(C=C(C#N)C(=O)Nc2ccccc2Cl)cc1` [8-M11, N-(2-chlorophenyl)-2-cyano-3-(4-acetamidophenyl)prop-2-enamide], the “% of control remaining” value was 90.2905%.

As to `C=CC(=O)NCc1ccc(C(=O)N2CCC[C@@H]2C(N)=O)cc1` [3-L22, (2R)-1-{4-[(prop-2-enamido)methyl]benzoyl}pyrrolidine-2-carboxamide], the “% of control remaining” value was determined as 98.2151%. The result for `C=CC(=O)NCc1cc(C2CC2)nn1C` [1-L10, N-[(3-cyclopropyl-1-methyl-1H-pyrazol-5-yl)methyl]prop-2-enamide] reads 79.8242%; that for `CC(Cl)C(=O)NC(C)c1nnc(-c2cccc(F)c2)s1` (stereo not drawn) [5-N15, 2-chloro-N-{1-[5-(3-fluorophenyl)-1,3,4-thiadiazol-2-yl]ethyl}propanamide], 108.561%. The result for `CC(Cl)C(=O)NCCc1cccs1` (stereo not drawn) [4-D14, 2-chloro-N-[2-(thiophen-2-yl)ethyl]propanamide] reads 107.099%; that for `CCN1C(=O)CSC1=C(C#N)C(N)=O` [8-M09, 2-cyano-2-(3-ethyl-4-oxo-1,3-thiazolidin-2-ylidene)acetamide], 100.581%. In the case of `COc1ccc2ccccc2c1-c1cc(CNC(=O)C(C)Cl)on1` (stereo not drawn) [7-E08, 2-chloro-N-{[3-(2-methoxynaphthalen-1-yl)-1,2-oxazol-5-yl]methyl}propanamide], the “% of control remaining” value was 104.867%.

Take `CC(Cl)C(=O)NCCc1ccccc1` (stereo not drawn) [4-K14, 2-chloro-N-(2-phenylethyl)propanamide]: the “% of control remaining” value is recorded as 112.816%. `C=CC(=O)N1CCN(c2nc3ccccc3o2)CC1` [1-K05, 1-[4-(1,3-benzoxazol-2-yl)piperazin-1-yl]prop-2-en-1-one]: the “% of control remaining” value is reported as 107.956%. For `C=CC(=O)N1CCC(C(=O)N(CC)Cc2occc2C)CC1` [2-L08, N-ethyl-N-[(3-methylfuran-2-yl)methyl]-1-(prop-2-enoyl)piperidine-4-carboxamide] the value was 126.719%; for `C=CC(=O)NCCn1nnc2ccccc21` [2-N11, N-[2-(1H-1,2,3-benzotriazol-1-yl)ethyl]prop-2-enamide], 114.186%; for `Cc1ccc(C=C(C#N)C(=O)Nc2nccs2)s1` [8-P13, 2-cyano-3-(5-methylthiophen-2-yl)-N-(1,3-thiazol-2-yl)prop-2-enamide], 93.61%. The result for `O=C(CCl)NCCc1cccc2c1Oc1ccccc1O2` [7-J18, 2-chloro-N-[2-(oxanthren-1-yl)ethyl]acetamide] reads 110.518%; that for `C=CC(=O)N1CCC(C(=O)Nc2ccc(N(C)C(C)=O)cc2)CC1` [2-D08, N-[4-(N-methylacetamido)phenyl]-1-(prop-2-enoyl)piperidine-4-carboxamide], 100.957%; that for `CCC(=O)N1CCc2cc(C(=O)CCl)ccc21` [10-C22, 1-[5-(2-chloroacetyl)-2,3-dihydro-1H-indol-1-yl]propan-1-one], 125.938%.

In the case of `CC(=O)Nc1ccc(NC(=O)N2CCSSCC2)cc1` [10-J11, N-(4-acetamidophenyl)-1,2,5-dithiazepane-5-carboxamide], the “% of control remaining” value turned out to be 105.938%. Turning to `N#CC(=Cc1ccc(OC(F)F)c(Cl)c1)C(N)=O` [9-L12, 3-[3-chloro-4-(difluoromethoxy)phenyl]-2-cyanoprop-2-enamide], the “% of control remaining” value was found to be 91.3858%. For `CC(Cl)C(=O)N1CCN(Cc2cc(=O)n3ccsc3n2)CC1` (stereo not drawn) [6-P17, 7-{[4-(2-chloropropanoyl)piperazin-1-yl]methyl}-5H-[1,3]thiazolo[3,2-a]pyrimidin-5-one] the value was 84%; for `Cc1ccc(NC(=O)C(C#N)=Cc2ccc(C(C)(C)C)cc2)cc1C` [9-E04, 3-(4-tert-butylphenyl)-2-cyano-N-(3,4-dimethylphenyl)prop-2-enamide], 96.4794%. For `Cc1cc(NC(=O)CCl)c([N+](=O)[O-])cc1C` [4-F21, 2-chloro-N-(4,5-dimethyl-2-nitrophenyl)acetamide] the value was 87.2797%; for `Cl.O=C(CCl)NC1CCN(c2ccncc2)CC1` [5-P09, 2-chloro-N-[1-(pyridin-4-yl)piperidin-4-yl]acetamide hydrochloride], 100.182%; for `C=CC(=O)NCc1ccc(C(C)(C)C)[nH]c1=O` [3-P08, N-[(6-tert-butyl-2-oxo-1,2-dihydropyridin-3-yl)methyl]prop-2-enamide], 91.2495%.
